Paper PMC6274998 (2018)

Biological target: T1, ClpS (Mycobacterium tuberculosis, UniProt A5U231)
T1 chain: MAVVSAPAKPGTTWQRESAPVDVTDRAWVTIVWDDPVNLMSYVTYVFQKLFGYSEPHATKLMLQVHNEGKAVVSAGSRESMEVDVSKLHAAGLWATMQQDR

B1: ClpC1 (protein)
chain: not shown
- Kd: ~325 nM
